Measurements: PubChem BioAssay AID485281 (National Center for Advancing Translational Sciences (NCATS), 2010)
Among all 350,000 compounds or so, about 260 (0.074%) were called active. This list was built around the results that the source calls inconclusive (neither active nor inactive); the mix of calls is not that of the screen. The call rests on the fitted dose curve; in most records, active means well fitted inhibition curve with a large enough effect; inconclusive means small, poorly fitted or top-dose-only effect; inactive means no such curve, though single readings can be large or run the other way. Where the call is inconclusive, the potency comes from a doubtful curve fit.

These compounds were tested against Ferritin light chain (Equus caballus) (UniProt P02791) (assay: qHTS Assay for Identification of Novel General Anesthetics). Conditions: apoferritin/1-aminoanthracene competitive binding, fluorescence; activity change, negative = displacement: at 77.5 µM (top of the series).
Chain of UniProt P02791 (P02791 whole entry, looked up): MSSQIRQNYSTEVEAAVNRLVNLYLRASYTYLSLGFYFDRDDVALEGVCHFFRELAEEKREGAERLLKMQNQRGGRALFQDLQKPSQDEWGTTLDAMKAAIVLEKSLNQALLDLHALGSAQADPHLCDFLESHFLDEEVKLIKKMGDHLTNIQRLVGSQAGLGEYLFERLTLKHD
Method in brief: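 Apoferritin-based anesthetic binding model; compound displacement of fluorescent 1-AMA measured as endpoint fluorescence after 10 minutes at room temperature, scaled to free-ligand and complex controls.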
Further: nearly all actives have a fitted effect of over 20% in size.
On the % scale 0 is the no-effect control and ±100 the full control effect; potency means the concentration at half of the fitted maximal effect; tags describe the fitted curve by direction and shape.

SMILES	Potency	activity change, negative = displacement
O=S(N1CCc2ccccc21)C12CC3CC(CC(C3)C1)C2 (configuration not stated)	inconclusive: 11.2 µM [inhibitor, partial curve]	
O=[N+]([O-])c1cc2c(cc1/C=N/n1c(-c3ccccc3)n[nH]c1=S)OCO2	inactive	
Cc1ccc(-n2c(C3CC3c3ccc(Cl)cc3)n[nH]c2=S)cc1 (configuration not stated)	inactive	
CCC1(C)CC(=O)c2c(ccc3oc(C(=O)NCc4ccccc4)c(C)c23)O1 (configuration not stated)	inconclusive: 7.94 µM [inhibitor, partial curve]	
C#Cc1cccc(NC(=O)Cc2cccs2)c1	inconclusive: 50.1 µM [inhibitor, single point]	
CCn1cc(C(=O)OCC(=O)NCc2ccc3c(c2)OCO3)c(=O)c2ccc(C)nc21	inconclusive: 6.31 µM [inhibitor, partial curve]	
Cc1cc(C)cc(N(CC(=O)NCc2ccc(F)cc2)C(=O)CCC(=O)Nc2ccccn2)c1	inconclusive: 6.31 µM [inhibitor, full curve]	
Cc1ccc(O)c(NC(=O)Cc2ccc3ccccc3c2)c1	inconclusive: 20 µM [inhibitor, partial curve]	
O=C(Cc1ccccc1)Nc1ccc(NC(=O)c2ccccc2)c(Cl)c1	inconclusive: 39.8 µM [inhibitor, single point]	
CC1CCN(c2cc(N3CCOCC3)c(F)cc2[N+](=O)[O-])CC1	inconclusive: 20 µM [inhibitor, partial curve]	
Cc1cccc(C(=O)Oc2cccc3c(O)cccc23)c1	inconclusive: 35.5 µM [inhibitor, partial curve]	
CC(C(=O)NC1CCS(=O)(=O)C1)N1C(=O)/C(=C/c2ccc(Cl)cc2)SC1=S (configuration not stated)	inconclusive: 35.5 µM [inhibitor, partial curve]	
O=C(CCC(=O)c1cccs1)NC1CCCCCC1	inconclusive: 28.2 µM [inhibitor, partial curve]	
CCOC(=O)CN(C(=O)CSc1nnc2c(n1)[nH]c1c(C)cc(C)cc12)c1ccccc1	inconclusive: 10 µM [inhibitor, full curve]	
Cc1ccc(NC(=O)C2C3CCC(O3)C2C(=O)O)cc1Cl (configuration not stated)	inconclusive: 28.2 µM [inhibitor, single point]	
N#Cc1cc(C(=O)Cc2ccccc2)c[nH]1	inconclusive: 31.6 µM [inhibitor, partial curve]	
CC(C)(C)c1ccc(NS(=O)(=O)c2ccc(N)cc2)cc1	inconclusive: 31.6 µM [inhibitor, single point]	
CC1CCN(C(=O)C(NS(=O)(=O)c2cccc3nsnc23)c2ccccc2)CC1 (configuration not stated)	inconclusive: 28.2 µM [inhibitor, partial curve]	
Clc1cccc(/C=N/Nc2ncnc3ccccc23)c1	inconclusive: 25.1 µM [inhibitor, partial curve]	
COCC(=O)n1nc(-c2ccccc2)nc1NCc1cccs1	inactive	
N#Cc1c(-c2ccccc2)ccn(Cc2ccccc2Cl)c1=O	inconclusive: 28.2 µM [inhibitor, partial curve]	
COc1ccc(-n2cnnc2SCc2ncc(-c3ccccc3)o2)cc1	inconclusive: 15.8 µM [inhibitor, partial curve]	
Nc1ccccc1SSc1ccccc1N	inconclusive: 15.8 µM [inhibitor, partial curve]	

SMILES	Potency	activity change, negative = displacement
CCc1nnc(NC(=O)c2nc(S(=O)(=O)Cc3ccc(C)cc3)ncc2Cl)s1	inactive	
O=C(CSc1ccsc1[N+](=O)[O-])N1CCCCCC1	inconclusive: 28.2 µM [inhibitor, partial curve]	
Cc1ccc(C(=O)c2cc([N+](=O)[O-])ccc2N2CC(C)OC(C)C2)cc1 (configuration not stated)	inactive	
Cc1c(CN2CCc3c([nH]c4ccccc34)C2C2CCCCC2)cnn1C (configuration not stated)	inactive	
COc1ccc(OC)c2sc(NC(=O)c3ccc(S(=O)(=O)N4CCCC4)cc3)nc12	inconclusive: 0.794 µM [inhibitor, full curve, poor fit]	
Cc1cccc(NC(=S)NC(C)(C)CC(C)(C)C)c1	inconclusive: 25.1 µM [inhibitor, partial curve]	
CSc1ccccc1OCc1cc(C(=O)NCc2ccc(C)s2)no1	inconclusive: 3.55 µM [inhibitor, full curve]	
O=C1/C(=C\c2cccc(O)c2)SC(=S)N1Cc1ccccc1	inconclusive: 44.7 µM [inhibitor, partial curve]	
COc1cc(SC)ccc1C(=O)NC1CCCCC1	inconclusive: 25.1 µM [inhibitor, partial curve]	
O=C(/C=C/c1ccccc1)N1CCC(c2ccccc2)C1 (configuration not stated)	inconclusive: 50.1 µM [inhibitor, single point]	
COC(=O)c1cc2cc(NS(=O)(=O)c3ccc(C)cc3)ccc2s1	inconclusive: 14.1 µM [inhibitor, partial curve, poor fit]	
COc1ccccc1-c1nc(SCC(=O)c2ccccc2)n[nH]1	inconclusive: 22.4 µM [inhibitor, partial curve]	
CCn1c(=O)c2cc(C(=O)NCCOC)sc2c2ccccc21	inactive	
CC1(C)Cc2c(sc3nnn(Cc4ccccc4)c(=O)c23)CO1	inconclusive: 25.1 µM [inhibitor, partial curve]	
CCOC(=O)c1c(COc2ccccc2)oc2ccc(O)cc12	inactive	
CCOC(=O)c1cnn2c(C)cc(-c3ccc(F)cc3)nc12	inactive	
CC1=N/C(=C\c2ccc([N+](=O)[O-])cc2)C(=O)N1c1ccc(Cl)cc1	inconclusive: 44.7 µM [inhibitor, single point]	
CCc1ccc(NC(=O)CS(=O)CC(=O)Nc2ccc(-n3cnnn3)c(C)c2)cc1 (configuration not stated)	inconclusive: 39.8 µM [inhibitor, single point]	
Nc1c(C(=O)NCc2ccccc2)nnn1Cc1cccc(Cl)c1	inconclusive: 3.55 µM [inhibitor, full curve]	
Cc1nnc(SCc2cnc(-c3ccc(C(C)C)cc3)s2)n1C	inconclusive: 31.6 µM [inhibitor, partial curve]	
CC1CCC(NC(=O)Cn2c(=O)[nH]c3ccsc3c2=O)CC1 (configuration not stated)	inconclusive: 31.6 µM [inhibitor, partial curve]	
CC(C)C(=O)NC(c1ccc([N+](=O)[O-])cc1)c1c(O)ccc2ccccc12 (configuration not stated)	inconclusive: 5.01 µM [inhibitor, partial curve]	
Cc1ccnc2c(N3C(=O)C4C5c6ccccc6C(c6ccccc65)C4C3=O)cccc12 (configuration not stated)	inconclusive: 5.01 µM [inhibitor, full curve, poor fit]	

SMILES	Potency	activity change, negative = displacement
COc1ccc(OCc2ccc(-c3nc4ccccc4c(=O)n3N)o2)cc1	inconclusive: 39.8 µM [inhibitor, partial curve]	
Cc1nn(CC(=O)Nc2c(F)cc(F)cc2Br)c(=O)c2cccn12	inconclusive: 39.8 µM [inhibitor, single point]	
O=C(O)C1C2C=CC(O2)C1C(=O)Nc1ccc(S(=O)(=O)Nc2ccccc2)cc1 (configuration not stated)	inconclusive: 25.1 µM [inhibitor, single point]	
Cc1cc(N/N=C/c2c(O)ccc3ccccc23)nc(-c2ccccc2O)n1	inactive	
Nc1ccc(C(=O)NC23CC4CC(CC(C4)C2)C3)cc1	inconclusive: 39.8 µM [inhibitor, single point]	
O=C1OCCN1C(=O)[C@H]1[C@H](c2ccc(Cl)cc2)C(c2cccc(Cl)c2)=NN1c1ccccc1	inactive	
CCCC#CCN1CCN(C23CC4CC(CC(C4)C2)C3)CC1	inactive	
COc1ccc2ccccc2c1CN1CCN(C(=O)c2ccccc2)CC1	inconclusive: 39.8 µM [inhibitor, single point]	
CCOc1cc(Br)ccc1S(=O)(=O)NCc1ccccc1	inconclusive: 22.4 µM [inhibitor, partial curve]	
O=C(Nc1ccc(OCc2ccccc2Cl)cc1)c1cccnc1	inconclusive: 35.5 µM [inhibitor, partial curve]	
CCCN(CCC)CC(=O)Nc1cccc2c1OCO2	inconclusive: 15.8 µM [inhibitor, partial curve]	
O=C(Nc1ccn(Cc2ccc(Cl)cc2)n1)c1ccccc1	inconclusive: 50.1 µM [inhibitor, single point]	
CCC1(CC)NC(=O)N(CC(=O)N2N=C(c3ccc(Cl)cc3)CC2c2ccco2)C1=O (configuration not stated)	inconclusive: 35.5 µM [inhibitor, single point]	
CCn1c(=O)cc(SCC(=O)NCc2ccc(F)cc2Cl)c2ccccc21	inactive	
CC1=CC2=NC(=O)/C(=C\c3cccn3CCOc3ccccc3C)C(=N)N2O1	inactive	
CCOC(=O)c1c(C)n(-c2ccc(C)cc2)c2c(C(C(C)=O)C(=O)O)c(Br)c(O)c(O)c12 (configuration not stated)	inconclusive: 11.2 µM [inhibitor, full curve, poor fit]	
Cc1cc(Cl)ccc1Nc1ncccc1C(N)=O	inconclusive: 35.5 µM [inhibitor, partial curve]	
O=C(NCCCl)c1ccc(OCc2ccccc2)cc1Cl	inconclusive: 14.1 µM [inhibitor, partial curve]	
Cc1cc(C)nc(/N=C(\N)Nc2ccc(-c3ccccc3)cc2)n1	inconclusive: 22.4 µM [inhibitor, partial curve]	
CO[C@@H]1COC(=O)[C@H]2CCCN2C(=O)[C@@H](C)COC(=O)C/C=C\[C@H]1C		inactive: 3.99% [at 15.3 µM]
O=C(NCC12CC3CC(CC(C3)C1)C2)c1nn2cccnc2c1Cl	inconclusive: 7.94 µM [inhibitor, full curve]	
